Results from PubChem BioAssay AID686970 (National Center for Advancing Translational Sciences (NCATS), 2013).
Out of some 360,000 compounds screened, about 6,000 (1.7%) were called active. The inconclusive results got no clear call from the source; some entries with a clear call stand among them for comparison. Calls come from the whole dose curve; as a rule, active = well fitted cell-killing curve with a large enough effect; inconclusive = small, poorly fitted or top-dose-only effect, or effect the other way; inactive = flat fitted curve, though single readings scatter. Potencies of inconclusive entries are left out as doubtful fits.

experiment: qHTS for induction of synthetic lethality in tumor cells producing 2HG: qHTS for the HT-1080-NT fibrosarcoma cell line; settings: HT-1080-NT fibrosarcoma viability, CellTiter-Glo ATP luminescence, 48 h; activity, negative = less viability: at 46.1 µM (top of the series) unless noted;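 note: NT is the 2HG producing partner of a matched IDH1 knockdown line; nearly all actives have a fitted effect of over 55% in size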;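 for activity, negative = less viability: 0% = DMSO-treated cells and -100% = media-only wells without cells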
How it was run: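 HT-1080-NT fibrosarcoma cells (2HG-overproducing), 750 cells/well in RPMI with 5% FBS, dosed after 2 h and incubated 48 h at 37C. CellTiter-Glo luminescence normalized to DMSO and no-cell wells; concentration-response curves fitted and classed.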
Potency is the fitted concentration of half-maximal effect; tags give direction and shape of the fitted curve.

Structure (SMILES)	Potency	activity, negative = less viability
O=C(Nc1ccc(S(=O)(=O)N2CCOCC2)cc1)c1ccc(Cl)s1	inconclusive [cytotoxic, single point]	
Cc1cccc(N(CC(=O)NCc2ccccc2)C(=O)CCC(=O)Nc2nccs2)c1	inconclusive [cytotoxic, single point]	
CCOC(=O)C1(Cc2ccc(Cl)cc2)CCN(C(=O)c2cnc(C)cn2)CC1	inactive	
CC1CCCN(C(=O)CSc2nnc(-c3c[nH]c4ccccc34)o2)C1 (centres undefined)	inconclusive [cytotoxic, partial curve, poor fit]	
Cc1cccc(C(O)(C(=O)NNc2ccc3ccccc3n2)c2cccc(C)c2)c1	inconclusive [cytotoxic, single point]	
O=C(O)Cn1cnc2c(OCc3ccccc3)ncnc21	inactive	
CCCCOc1ccc(NC2=NC3(CCCC3)N=C(N)N2)cc1	inconclusive [cytotoxic, single point]	
O=C(N/N=C/c1cccc(O)c1)c1ccccc1O	inactive	
CC1(C(=O)N/N=C/c2ccc([N+](=O)[O-])o2)CC1(Br)Br (centres undefined)	inconclusive [cytotoxic, partial curve]	
CCOC(=O)N1CCN(S(=O)(=O)c2ccc(OC)c(Cl)c2Cl)CC1	inactive	
N#Cc1nc(-c2ccc(F)cc2)oc1N1CCCCC1	inconclusive [rising, single point]	
COc1ccc(-c2cc(C(F)(F)F)nc(S(=O)(=O)CCCC(=O)Nc3cccc(O)c3)n2)cc1OC	active: 18.4 µM	
COc1cc(CC(=O)Nc2nc(-c3ccc(F)c(F)c3)cs2)cc(OC)c1OC	inconclusive [cytotoxic, partial curve]	
Cc1ccccc1NC(=O)Nc1nc(C(N)c2ccccc2)cs1 (centres undefined)	inconclusive [cytotoxic, single point]	
COCCCC1CCN(C(=O)c2cc(COc3ccc(C)nc3)on2)CC1	inconclusive [cytotoxic, partial curve]	
NC(CCc1ccccc1)c1csc(NC(=O)Nc2cccc(Cl)c2)n1 (centres undefined)	inconclusive [cytotoxic, single point]	
O=C(O)CSCC(=O)N1CCc2c([nH]c3ccccc23)C1C(F)(F)F (centres undefined)		inconclusive: 33.4%
Cc1cccc2sc(NNC(=O)c3ccc(S(=O)(=O)N4CC(C)CC(C)C4)cc3)nc12 (centres undefined)	inconclusive [cytotoxic, partial curve]	
CCOc1ccc(-c2cn3ccccc3n2)cc1	inconclusive [cytotoxic, partial curve]	
